Measured values reported in PMC4336329 (PLoS ONE, 2015).
Out of some 310,000 compounds screened, about 14,000 (4.5%) showed an effect of 50% or more. Effects have a minus sign here. Some of the results follow. *1 amine or outer side, *2 acyl side, *3 side chain or, on linkers, in order; H or OH if unused. Where a SMILES comes first, the peptide text is derived from it. Bridges are numbered along the chain shown (N, C = ends). [ ]: non-standard residue; d: D form. ξ: configuration not given here. hSer(Ph(2-I,4-NO2,6-CO)) = O=C([C@H](CCOc1c(I)cc([N+](=O)[O-])cc1C(=O)[*:3])N[*:1])[*:2]; ξD = NC(CC(=O)O)C(=O)O

Each compound was assayed against human ether-à-go-go-related gene (hERG) potassium channel (human, UniProt Q12809) (assay: primary screen, population patch clamp on CHO cells stably expressing hERG).
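Further: peak tail current of the secondary pulse compared with the same well before compound.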

Chain of human ether-à-go-go-related gene (hERG) potassium channel (Q12809 whole entry, looked up): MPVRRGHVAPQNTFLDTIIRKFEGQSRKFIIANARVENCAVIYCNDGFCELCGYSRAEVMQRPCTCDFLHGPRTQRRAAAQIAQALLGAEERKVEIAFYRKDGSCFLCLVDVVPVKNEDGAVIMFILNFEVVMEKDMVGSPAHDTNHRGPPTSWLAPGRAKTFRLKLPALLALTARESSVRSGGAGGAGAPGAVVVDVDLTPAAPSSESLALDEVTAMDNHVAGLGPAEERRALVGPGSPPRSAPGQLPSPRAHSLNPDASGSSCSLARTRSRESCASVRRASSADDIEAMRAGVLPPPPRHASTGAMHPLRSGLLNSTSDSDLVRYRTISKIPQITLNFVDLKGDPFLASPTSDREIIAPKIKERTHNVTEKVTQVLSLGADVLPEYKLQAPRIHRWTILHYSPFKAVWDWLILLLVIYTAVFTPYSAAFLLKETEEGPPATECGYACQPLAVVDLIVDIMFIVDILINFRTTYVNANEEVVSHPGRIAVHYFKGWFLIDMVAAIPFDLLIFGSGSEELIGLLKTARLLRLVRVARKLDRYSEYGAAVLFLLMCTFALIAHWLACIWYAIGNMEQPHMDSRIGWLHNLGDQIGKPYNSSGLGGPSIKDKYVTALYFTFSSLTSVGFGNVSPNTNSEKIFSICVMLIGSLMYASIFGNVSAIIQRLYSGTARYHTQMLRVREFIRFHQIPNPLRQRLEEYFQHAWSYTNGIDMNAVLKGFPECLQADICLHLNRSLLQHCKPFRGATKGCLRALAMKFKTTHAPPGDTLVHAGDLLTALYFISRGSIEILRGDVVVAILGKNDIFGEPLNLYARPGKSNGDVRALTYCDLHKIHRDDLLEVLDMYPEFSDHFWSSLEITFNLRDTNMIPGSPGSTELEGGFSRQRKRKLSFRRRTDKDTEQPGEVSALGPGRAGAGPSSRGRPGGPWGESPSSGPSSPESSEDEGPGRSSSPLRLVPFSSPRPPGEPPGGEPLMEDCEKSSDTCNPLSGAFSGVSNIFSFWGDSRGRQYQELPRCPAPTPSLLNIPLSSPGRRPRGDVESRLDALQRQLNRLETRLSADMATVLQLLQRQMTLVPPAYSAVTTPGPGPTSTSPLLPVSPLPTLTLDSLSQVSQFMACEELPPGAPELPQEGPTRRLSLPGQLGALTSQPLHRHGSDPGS

Structure (SMILES) | hERG current change (%, negative = inhibition) at 10uM
Cc1cc(C)c(C#N)c(SCc2c(F)cccc2[N+](=O)[O-])n1 | 6.69%
Fc1cccc(CN2CCN(c3ccc(Cl)cc3)CC2)c1 | 18%
C=C1CCC[C@]2(C)C[C@H]3OC(=O)C(CNC(C)CC)[C@H]3CC12 (stereo partly drawn) | 0.523%
COc1ccc(C(C(=O)Nc2ccc3c(c2)OCO3)N(C)C(=O)Cc2c[nH]c3ccccc23)cc1 (stereo not drawn) | -19%
CCOc1ccc(NC(=O)C(CC)NC(=O)c2ccccc2CO)cc1 (stereo not drawn) | -0.62%
CC(C)CC(NC(N)=O)C(=O)NCc1ccc(Cl)cc1 (stereo not drawn) | 5.23%
CN(Cc1ccccc1)C(=O)C1CCN(S(C)(=O)=O)CC1 | 16.1%
O=C(Nc1ccc([N+](=O)[O-])cc1)Nc1ccc2[nH]c(=O)[nH]c2c1 | -3.77%
O=S(=O)(NC1CCCCC1N1CCN(c2cccc(Cl)c2)CC1)c1ccccc1 (stereo not drawn) | -4.48%
COc1cc(OC)c(C(=O)/C=C/c2ccccc2)c(O)c1O | 8.43%
COc1ccc(-n2c(/C=C/c3ccc(O)c(O)c3)nc3ccccc3c2=O)cc1 | 10.6%
COCCNc1nc(SCC(=O)N2CCN(c3ccccc3OC)CC2)nc2ccccc12 | -88.6%
Cc1cc(NC(=O)COC(=O)COc2ccc3c4c(c(=O)oc3c2)CCC4)no1 | -11%
O=C(CSc1nnc(CNC(=O)c2ccco2)o1)c1ccc(Cl)cc1 | -21.2%
COCCn1c(SCC(=O)OC(C)C)nnc1-c1ccccc1 | -4.14%
Cc1nn(-c2ccccc2)c2nc(-c3cccs3)cc(C(=O)NN)c12 | 25.6%
O=C(COc1cccnc1[N+](=O)[O-])Nc1ccc2c(c1)OCO2 | 6.1%
O=C(Nc1ccccc1)c1cc(N2CCOCC2)nc2ccccc12 | 1.76%
COc1cccc(CNC(=O)c2nnn(CC(=O)Nc3ccc4c(c3)OCO4)c2N)c1 | 6.44%
CCn1c(O)c(/C(C)=N/N2CCCCC2c2cccnc2)c(=O)[nH]c1=S (stereo not drawn) | -55.2%
Cn1c(SCC(=O)NCc2cccs2)nnc1-c1ccc(O)cc1 | 27.7%

Structure (SMILES) | hERG current change (%, negative = inhibition) at 10uM
CCOC(=O)c1cccc(NC(=O)CCc2nnc3ccc(N4CCOCC4)nn23)c1 | 7.99%
COc1ccc(/C(C)=N/Nc2nccnc2Cl)cc1 | -27%
Cc1c(OC(C)C(=O)NCCN2CCOCC2)ccc2c(-c3ccccc3)cc(=O)oc12 (stereo not drawn) | -39.7%
Cc1ccc2cc(CN(Cc3ccco3)C(=O)NC3CCCCC3)c(=O)[nH]c2c1C | -37%
Cc1ccc(NC(=O)CN2C(=O)NC3(CCCc4ccccc43)C2=O)c([N+](=O)[O-])c1 (stereo not drawn) | -75.6%
CC(C)(C)NC(=O)c1cc(-c2ccccc2)n[nH]1 | 11.5%
COc1ccc(C(=O)Nc2ccc(S(=O)(=O)Nc3onc(C)c3C)cc2)cc1 | 9.91%
CCOC(=O)C1CCN(S(=O)(=O)c2ccc(C)c(C)c2)CC1 | -6.16%
NC(=O)C(CC(=O)O)NC(=O)[C@@H]1CCOc2c(I)cc([N+](=O)[O-])cc2C(=O)N[C@@H](CCC(=O)O)C(=O)N[C@@H](CO)C(=O)N1 (stereo partly drawn) (ES[hSer(Ph(2-I,4-NO2,6-CO))][ξD]-NH2; lactam N-3) | -5.73%
CCOC(=O)N1CCC(NC(=O)CS(=O)Cc2nc(-c3ccccc3C)oc2C)CC1 (stereo not drawn) | -42.3%
Cc1ccc(-c2nnc(SCC#CCOC(=O)c3ccco3)o2)cc1 | -6.36%
Cc1cc(C)c2c(=O)cc(C(F)F)oc2c1 | 0.766%
CCOC(=O)c1cc(CC)sc1NC(=O)CC1Sc2ccc(C(F)(F)F)cc2NC1=O (stereo not drawn) | 21.1%
O=C(OCc1ccc(Cl)c(Cl)c1)c1cccnc1Cl | 11.2%
C=CCSC1=C(C#N)C(c2ccccc2Cl)C(C(=O)c2cccs2)C(O)(C(F)(F)F)N1 (stereo not drawn) | -4.55%
O=C(CSCCNS(=O)(=O)c1ccccc1)Nc1ccccc1 | 2.15%
CC1CN(C(=O)c2cccc(Oc3ccccc3)c2)CC(C)O1 (stereo not drawn) | 12.1%
CC(=O)c1ccc(NC(=S)N2CCCC2)cc1 | 7.4%
CCCCN1C(=O)N(c2ccccc2Cl)C(C)(O)CC1(C)C (stereo not drawn) | 11.5%
Cc1cccc(NC(=O)c2ccc(S(=O)(=O)C(F)F)cc2)c1C | 8.55%
CN(C)c1nc(SCc2ccccc2Cl)nc2c1CCCC2 | 5.96%

Structure (SMILES) | hERG current change (%, negative = inhibition) at 10uM
COc1ccc(-c2noc(N3CCC(C(=O)Nc4ccc(F)cc4)CC3)n2)cc1 | -6.33%
N/C(=N\OC(=O)Cc1cccs1)c1ccc([N+](=O)[O-])cc1 | -24.4%
CC(=O)Nc1cc(C(=O)N2CCC3(CC2)OCCO3)ccc1Sc1ccc(C)cc1 | -16%
C=CCn1c(-c2cccnc2Cl)nc2cc(Cl)c(Cl)cc21 | -4.91%
O=C(COC(=O)c1cncc(Br)c1)NC1CCCC1 | 3.31%
COc1ccc(NS(=O)(=O)c2cccc(NC(=O)NC3CCCCC3)c2)cc1 | -4.21%
N/C(Cc1ccc([N+](=O)[O-])cc1)=N\OC(=O)c1cccc(Br)c1 | -58%
C[C@@H](Oc1ccccc1)c1nnn(Cc2ccccc2)c1-c1c([C@@H](C)Oc2ccccc2)nnn1Cc1ccccc1 | -2.33%
CC(C)Oc1ccc(CN2CCC(n3nccc3NC(=O)CCc3ccccc3)CC2)cc1 | -82.3%
COc1ccccc1OCc1ccc(C(=O)NN)cc1 | 0.68%
CC(C)CNC(=O)NC(=O)COC(=O)COc1ccc(Cl)cc1Cl | 9.46%
Cc1ccc(-n2ncc3c(NNC(=O)c4ccco4)ncnc32)cc1Cl | 18.4%
c1ccc2c(c1)CCN(c1nc3cc4c(cc3s1)OCO4)C2 | 12.9%
O=C(CCc1ccncc1)NC1CCCc2c1cnn2-c1ccc(F)cc1F (stereo not drawn) | -12.5%
COc1ccc(NC(=O)COC(=O)[C@@H](NC(=O)c2c(F)cccc2F)C(C)C)cc1 | 9.54%
CCOC(=O)c1c(C)[nH]c(C)c1C(=O)COC(=O)c1ccc(Cl)c(S(=O)(=O)NCc2ccccc2)c1 | -5.18%
Cc1ccc(CNC(=O)C2CC(c3ccccc3C(F)(F)F)=NO2)cc1 (stereo not drawn) | -26.8%
CC(=O)c1ccc(NC(=O)N[C@@H](CC(C)C)C(=O)O)cc1 | 2.99%
CCS(=O)(=O)Nc1cccc(C2=NN(S(=O)(=O)c3ccc(C)cc3)C(c3cccs3)C2)c1 (stereo not drawn) | -7.69%
COc1cc(NC(=S)NCCC(c2ccccc2)c2ccccc2)c(OC)cc1Cl | 13.4%
CCOC(=O)CC(=O)Nc1ccc(C(=O)OCC)cc1 | -18.3%

Structure (SMILES) | hERG current change (%, negative = inhibition) at 10uM
CCc1ccc(-c2cc(C)no2)cc1S(=O)(=O)N1CCC(C)CC1 | -15.8%
O=S(=O)(c1ccccc1)n1c(C(O)c2ccccn2)cc2ccccc21 (stereo not drawn) | -10.5%
O=C(N[C@@H](Cc1ccccc1)C(=O)NCc1ccc(F)cc1)C1CCNCC1 | 22.6%
COc1ccc(OC)c(C(=O)NC(CC(N)=O)c2ccc(NCCN3CCCCC3)c([N+](=O)[O-])c2)c1 (stereo not drawn) | -6.09%
O=S(=O)(N=S(N1CCCCC1)N1CCCCC1)c1ccccc1 | -8.09%
CC[n+]1c(C)sc2sc3ccccc3c21.[I-] | 4.79%
COc1ccccc1-n1c(SCC(=O)NCC2CCCO2)nc2c([nH]c3ccccc32)c1=O (stereo not drawn) | 9.22%
Cc1ccc(-c2cnc(N)n2C)cc1C | -7.74%
COc1ccc(-c2c[n+]3c(n2-c2ccccc2)SCC3)cc1OC.[Br-] | 4.92%
Cc1ccc(CNC(=O)CCCn2c(=O)[nH]c3ccccc3c2=O)cc1 | 14.5%
COc1ccc(C(=O)NCc2ccc(-c3nc4ccccc4s3)cc2)cc1OC | 2.25%
CCOC(=O)C(OC(=O)c1sc(=S)n(C)c1C)C(C)=O (stereo not drawn) | 16.9%
COc1ccc(S(=O)(=O)NC2CC(C)(C)NC(C)(C)C2)cc1 | 7.36%
CCc1nnc(NC(=O)c2cc(S(=O)(=O)N(C)c3ccc(OC)cc3)ccc2Cl)s1 | 3.48%
CCOC(=O)c1cc2c(=O)n3ccccc3nc2n(C(C)C)c1=NC(=O)c1c(-c2c(F)cccc2Cl)noc1C | 2.48%
O=C(C1=C[C@H](c2csc3ccccc23)C[C@H](OCCCCO)O1)N1CCOCC1 | -14.1%
Cc1ccc(C(=O)c2sc3c(c2N)c(=O)[nH]c(=O)n3CCc2ccccc2)cc1 | 12.2%
CC(NC(=O)C1CCN(S(=O)(=O)N2CCC3(CC2)OCCO3)CC1)c1ccccc1 (stereo not drawn) | 20.9%
COc1c(O)c(O)c2oc(-c3ccccc3)cc(=O)c2c1OC | -0.202%
CCCCN(CCCNC(=O)C1CCN(C(=O)c2cc3sccc3n2C)CC1)Cc1ccccc1 | -60.8%
Cc1c(F)cccc1NC(=O)CCC(=O)O | 12.1%
